From the supplement of paper PMC11417369
The other results are listed elsewhere or left out.

tested on: PF3D7_0420300 AP2 domain 1 (GST-tagged); assay: gcPBM binding intensity (ln(normalized median fluorescence intensity)); higher = stronger DNA binding
Outline: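 Probes on an Agilent 4 × 180k array were primer-extended, double-stranded and 36 bp long, taken from intergenic genomic regions, with negative controls added. GST-tagged P. falciparum DNA-binding domains from E. coli, about 25 μg on average, were applied to the array for 1 h in 1× PBS containing 1% milk, 0.2 mg/ml BSA, 0.5% salmon testes DNA and 0.03% Triton X-100. Binding intensity, obtained after Alexa488 anti-GST antibody detection and a 488 nm scan, is the highest Masliner-normalised natural-log median intensity across replicate spots of either probe orientation.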

| Sequence | gcPBM binding intensity (ln) |
| --- | --- |
| AAGGATAATAGGTACACATGCAATATTCATATATAC [TGCATGCA_site523] | 9.61 |
| TAAATATAATAAAAGTGTACTTACACTTACATATAA [XGTACX_site1206] | 9.12 |
| TTTCACACTATTTCATGTACACATAAAATTATATAT [XGTACX_site8692] | 9.32 |
| AACAGATAAAAGGGTACACACATATATACATGTACA [CACACA_site225] | 9.75 |
| TTGTATATATTTCCTTGTACGTAATAATTCTTATTG [XGTACX_site3938] | 9.39 |
| ATATAATAAGGTTAAGCACACATATTACATATATAA [CACACA_site9110] | 9.4 |
| TTTTATTCCGTTTCAAAATAAGAAAAAAAAAAAAAT [CACACA_negctrl_site1199] | 8.98 |
| TACTTCTCATTTGTTGTTGTATTTTAGGCATACCCT [XGTACX_negctrl_site385] | 9.51 |
| TATTTTAAAACAAAAATATAATTTCATAAAAATATA [CACACA_negctrl_site394] | 8.77 |
| TAATATATATATTTATGTACATATAAATTTTCTCCT [XGTACX_site4496] | 9.19 |
| ATAAAATAATCTTATGCACACCAAAAATTTATATAA [CACACA_site8332] | 9.28 |
| ATATATCAAAAATGATGACATAAATATATTAATTTA [TGCATGCA_negctrl_site259] | 9.1 |
| TTTTTGTAAAATAAACGTACAAAACAATTGTTCATT [XGTACX_site6537] | 9.12 |
| TATCTGTATGTATGTACACACAAAAAATGGAATATA [CACACA_site5947] | 9.51 |
| TTATATACATAAAAATGTACTTTTTATAAAATATAT [XGTACX_site8281] | 8.94 |
| AAGTTAGTATTCTGCTGTACTTCTATATATAAGTGT [XGTACX_site7678] | 9.24 |
| ACAACATTTCTCAAATGTACATAATATAATTTATAT [XGTACX_site3224] | 9.16 |
| TATTAATTCTTAAATTTTTTTTTTTAATTCCTAGGA [CACACA_negctrl_site879] | 8.63 |
| TATATATAATACAGTATGCACTATTTTTATTAAAAA | 8.88 |
| CAATAATTTTTTAAATGTACTTTATTATAATTTAAT [XGTACX_site135] | 9.03 |
| GCCTTCCTTCTAAATGCACACGGAAAGTATAAATGT [CACACA_site8797] | 9.45 |
| GAATGAATCAATGTTTGTACTCAACAAATTATAAGG [XGTACX_site5122] | 9.13 |

| Sequence | gcPBM binding intensity (ln) |
| --- | --- |
| GTCTAACAACCAAACGCACACACACTAATAAAAAAA [CACACA_site8026] | 9.81 |
| TTTTCTTACATCTTATAAAAAAAAATATATATTATA [GTGCAC_negctrl_site118] | 8.77 |
| TAAATATATAAATACACACACATACACAAAAAAAAA [CACACA_site5890] | 10.1 |
| TATACACCCTAAAATACACACACACCCACCCATATA [CACACA_site9380] | 10.3 |
| TATAAACCAATGAACACACAAACATATATATATATA [CACACA_site3168] | 9.79 |
| TCTTTTTATATTTATTGTACATAAAAAATAAAACAT [XGTACX_site4073] | 9.05 |
| TTTTTTTTTCTTTCTTTCTTTTGTAAAAACCTCAAA [CACACA_negctrl_site723] | 8.89 |
| ATATGTATATATAAAAGTACGCGTAAAAAAAAAAAA [XGTACX_site5377] | 9.56 |
| TTTTTATAAATACACATAAATATATATATATATATA [TGCATGCA_negctrl_site393] | 8.95 |
| ACACAAAAAAATATATATATATATATATATATGTTA [CACACA_negctrl_site55] | 9.09 |
| AAAAAAAAAAAAAAATGTACATTTTGAAAGGATATA [XGTACX_site8217] | 9.07 |
| ATGCATTATTAGAATACACACCATACGCATATTTAT [CACACA_site4319] | 9.48 |
| TAAAGAAAAAGAGAATGTACATGAGAAAAGTATACT [XGTACX_site7472] | 9.6 |
| AGAAAAAAAAAAAAATGTACAGACTTTTTCTTATAA [XGTACX_site6481] | 8.93 |
| AATCACAACAGACACACACACAAAAAAAAAAAAAAA [CACACA_site1442] | 9.5 |
| ATATGTTATATAAATATATATATATATATATATATA [TGCATGCA_negctrl_site594] | 9.01 |
| TTAATATAATAGAAGTGTACACACATATTTATGTGT [XGTACX_site6672] | 9.6 |
| TATTTATAAACATACGCACACATTAAAATATATATA [CACACA_site6051] | 9.51 |
| ATATATATATATATAGTGCATAAAATAAGTTTCTAA | 9.18 |
| TAATAATAAAAATAAACACACATATATCTGTATTTA [CACACA_site5572] | 9.33 |
| GGTGGAAACAATTACACACACACAAAAAAAAAAAAA [CACACA_site3208] | 9.83 |
| CAATCATGGGTTTACACACACATGCATGTGAAAATT [CACACA_site1349] | 9.71 |

| Sequence | gcPBM binding intensity (ln) |
| --- | --- |
| ATTTTTGCAGTAATTAAATAGACAAAATGAAAAAAA [CACACA_negctrl_site1537] | 9.16 |
| GATGATAATAAATTTATATATAATATTATCTTATGT [GTGCAC_negctrl_site672] | 9.13 |
| CATATTAAAAATTATTGTACATATTAATGAATATAA [XGTACX_site2734] | 9.03 |
| AACCAAACAAATAAACGTACAAACATTACATATATT [XGTACX_site2265] | 9.67 |
| ACAATAAAGAAGTGTACACATATATCAATAAAAAAA [CACACA_site5228] | 9.39 |
| AAAATAATATTTAATACACACATAATTTTAATATAA [CACACA_site4588] | 9.46 |
| TACTTATATTATTTTATTATTAAATTTAAAACGAAA [CACACA_negctrl_site736] | 8.91 |
| ATATACACACAAAAACGTACACATATATATATGTAT [XGTACX_site2673] | 9.84 |
| GGTATAATAATATATAGTACACACAAAAATGGAAGT [XGTACX_site7058] | 9.94 |
| AAAAAAAAAAAAAGCACACATATAAATATGAATAAA [CACACA_site1393] | 9.41 |
| AAAAAAAAAAAAAACACACACATACACCCAAAAATG [CACACA_site4223] | 9.84 |
| TCAAAAATAAAGATCACACATATATATATATATATA [CACACA_site4381] | 9.2 |
| ATGTACAAAATAAGCACACACAAAAAAAAAAAAAAT [CACACA_site2998] | 9.91 |
| TCTAATTACAAAAACATACACACAAAAAAAAAAAAA [CACACA_site3783] | 9.74 |
| CCTATAAATGCATTCACACATATATATTTATATTAT [CACACA_site6086] | 9.26 |
| GTAAGAAACAGACACACACACATATATATATATATA [CACACA_site794] | 9.79 |
| GAACAGTTTGTTTAGTGTACTTTTTTTTTTTTTTTT [XGTACX_site8881] | 9.22 |
| AATAATTTTATCGGTACACACTGTATGCATAATATT [CACACA_site4364] | 9.53 |
| TTTGATCGATGGATTTAACACACAAAAAAAAAAAAA [CACACA_site9279] | 9.15 |
| CTTAATTTAATGAAATGTACATATAAAAATATTATA [XGTACX_site3303] | 8.88 |
| CTATAAATATTTTATTGTACACACTTTTTATGAATG [XGTACX_site6711] | 9.43 |
| ATATATATATAGTGCACACTTAAGAATATAAAGAGG [CACACA_site1151] | 9.45 |

| Sequence | gcPBM binding intensity (ln) |
| --- | --- |
| AAAATTTTTAGTTATACACACAACATAGAAAATATT [CACACA_site328] | 9.47 |
| AATACATACAGACACACACACACATATATATATATA [CACACA_site3558] | 10.1 |
| CACATACACCCATACACACACATATATATTAAGATA [CACACA_site4459] | 9.96 |
| ATGATAAACATGGATACACACATATAGATTGCATAT [CACACA_site6843] | 9.61 |
| TTCATCTTAAAATTGGGTACATAACACAAAGTATAA [XGTACX_site1894] | 9 |
| ATATATATTAACAATACACACGTGTATACCTTATTG [CACACA_site5258] | 9.55 |
| ATTTCTCTATCGTAATGTACATAAAAAAGAAAAACA [XGTACX_site6374] | 9 |
| TTATTAAATTCATAAGTGCATTTATGATTAATTTTT [GTGCAC_site9749] | 9.01 |
| TTACATGTAAAAGGTACACACATTATGTATACAAAT [CACACA_site1117] | 9.59 |
| TTTTTTTTTTTTTTTTGTCCGTACTGCTTTGTGTTT [XGTACX_site3687] | 8.93 |
| TTACCCATTCCCTTTACATGCAATTTGTATTAATAA [TGCATGCA_site412] | 9.51 |
| GTACGTTAGATATATACACACATACATAATAAAGAA [CACACA_site7327] | 9.67 |
| TTAATTCTACTTATTACACACATATTAAGCAAAAAT [CACACA_site4921] | 9.35 |
| ATATGTTCCGAAGGTTGTACACACATAGAAATATAC [XGTACX_site8227] | 9.71 |
| AAAATATATACAATATGTACATATATATATATATAT [XGTACX_site1898] | 9.2 |
| AAAAGGAAAAATATCACACATATATATATATATATA [CACACA_site5586] | 9.23 |
| ATTATTATACACAAATGTACATGTGAATTTTTTTTC [XGTACX_site6982] | 9.28 |
| AATAAGTAACAAAATACACACATATAGGTAATTATA [CACACA_site6949] | 9.85 |
| ATATATATTTATAGGTGTACAAAATACTATTTTAGG [XGTACX_site8499] | 9.04 |
| TACCAAATTTATTCTTGTACATATATATATATATAT [XGTACX_site4832] | 9.28 |
| AATATAGAAATAAATATATCACATTTGTGTTTAAAC [XGTACX_negctrl_site68] | 9.28 |
| TTTATGACTTGAAAAAGTACACATATATTTATGCAA [XGTACX_site5451] | 8.89 |
